Source: paper PMC4336329 (PLoS ONE, 2015)
About 2,200 (0.71%) of roughly 310,000 compounds showed an effect of 50% or more. Effects have a minus sign here. Some of the results follow. Where a SMILES comes first, the peptide text is derived from it. [ ]: non-standard residue; d: D form. The star is where a group is joined. ξ: configuration not given here. Cbz = O=C(OCc1ccccc1)*; ξP = O=C(O)C1CCCN1

Biological target: human ether-à-go-go-related gene (hERG) potassium channel (human, UniProt Q12809)
Sequence (Q12809 whole entry, looked up): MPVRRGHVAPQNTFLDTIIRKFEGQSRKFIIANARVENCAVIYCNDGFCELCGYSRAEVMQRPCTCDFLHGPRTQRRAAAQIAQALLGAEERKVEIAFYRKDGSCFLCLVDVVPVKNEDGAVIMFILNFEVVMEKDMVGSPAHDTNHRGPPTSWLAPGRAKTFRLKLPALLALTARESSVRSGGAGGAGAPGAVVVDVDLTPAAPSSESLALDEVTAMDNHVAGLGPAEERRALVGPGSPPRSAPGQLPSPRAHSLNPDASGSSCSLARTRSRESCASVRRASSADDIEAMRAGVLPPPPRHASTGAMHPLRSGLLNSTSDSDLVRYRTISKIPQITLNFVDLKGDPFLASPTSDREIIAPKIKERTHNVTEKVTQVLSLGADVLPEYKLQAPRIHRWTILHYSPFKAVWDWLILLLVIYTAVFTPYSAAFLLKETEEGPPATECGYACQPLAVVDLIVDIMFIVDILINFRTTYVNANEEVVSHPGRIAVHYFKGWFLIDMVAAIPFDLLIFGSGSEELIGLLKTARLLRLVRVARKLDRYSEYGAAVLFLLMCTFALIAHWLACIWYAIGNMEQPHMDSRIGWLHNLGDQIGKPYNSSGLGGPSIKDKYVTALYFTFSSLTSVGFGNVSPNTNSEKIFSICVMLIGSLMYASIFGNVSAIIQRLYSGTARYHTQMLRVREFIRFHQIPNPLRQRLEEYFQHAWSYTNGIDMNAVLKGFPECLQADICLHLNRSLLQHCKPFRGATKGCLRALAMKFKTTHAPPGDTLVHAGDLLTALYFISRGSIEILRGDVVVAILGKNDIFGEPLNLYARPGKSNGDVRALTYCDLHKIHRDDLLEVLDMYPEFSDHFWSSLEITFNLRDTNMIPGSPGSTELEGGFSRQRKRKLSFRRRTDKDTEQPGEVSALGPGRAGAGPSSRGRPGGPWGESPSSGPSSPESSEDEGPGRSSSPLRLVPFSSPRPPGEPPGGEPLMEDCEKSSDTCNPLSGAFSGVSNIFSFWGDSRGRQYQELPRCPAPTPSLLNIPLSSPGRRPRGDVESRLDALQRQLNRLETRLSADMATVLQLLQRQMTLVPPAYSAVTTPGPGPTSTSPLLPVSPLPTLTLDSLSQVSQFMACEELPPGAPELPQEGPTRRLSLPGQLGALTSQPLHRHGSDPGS
Assay: primary screen, population patch clamp on CHO cells stably expressing hERG

| SMILES | hERG current change (%, negative = inhibition) at 1uM [%] |
| --- | --- |
| O=C(CSc1nc2c([nH]c3ccccc32)c(=O)n1-c1ccccc1)N1CCOCC1 | 5.12 |
| CCc1ccc(C2=NN(S(C)(=O)=O)C(c3cccs3)C2)cc1 (stereo not shown) | 3.41 |
| O=C(CCn1ccc2ccccc21)NC1CCCc2ccccc21 (stereo not shown) | -1.75 |
| O=C(O)CCC(=O)NCc1ccc(F)cc1 | 0.0865 |
| Cc1ccc(-c2csc3ncnc(NCCC(=O)O)c23)cc1.Cl | 10.1 |
| CC(=O)c1cc2c(s1)-c1cc(F)ccc1OC2 | 2.28 |
| O=C(Nc1ccccc1)OCCN1CCN(Cc2ccccc2)CCC1=O | -1.66 |
| COc1cc(C(=S)N2CCOCC2)ccc1OC(=O)/C=C/c1ccco1 | 9.77 |
| Cn1c(SCC(=O)N2CC(=O)Nc3ccccc32)nc2ccccc2c1=O | 8.32 |
| Cc1ccc(-n2c(C)c(C)c3c(N)ncnc32)cc1 | 8.28 |
| S=c1sc2ccccc2n1CCc1ccncc1 | 16.5 |
| Oc1ccc(C=NC2CCCCC2)cc1 | 15 |
| Cc1cc(C)c(NC(=O)c2sc3nc(C)[nH]c(=O)c3c2C)c(C)c1 | 12.4 |
| O=C(/C=C/c1ccc(OCCCF)cc1)Nc1ccnc(-c2ccncc2)n1 | 17.1 |
| CCn1c(C)cs/c1=N\S(=O)(=O)c1ccccc1 | 10.3 |
| CCCn1c(=S)[nH]c2ccc(C(F)(F)F)cc21 | -6.25 |
| CCCCn1c(C(C)NC(=O)c2cccs2)nc2ccccc21 (stereo not shown) | 17.1 |
| Cc1cc(NC(=O)C(C)Oc2ccc(Cl)cc2Cl)no1 (stereo not shown) | 4.53 |
| COc1cc(C(=O)NCCOc2cccc(C)c2)c(Br)c(OC)c1OC | 11.4 |
| Cc1cccc(OCC(=O)Nc2ccccc2F)c1 | 13.9 |
| CCOC(=O)C1CCCN(S(=O)(=O)c2ccc(OC)cc2)C1 (stereo not shown) | -1.51 |
| Cn1c(Cl)nc2c1c(=O)n(Cc1cccc(Br)c1)c(=O)n2C | 5.48 |

| SMILES | hERG current change (%, negative = inhibition) at 1uM [%] |
| --- | --- |
| Cc1ccn2c(=O)nc(SCC(=O)N3N=C(c4cccs4)CC3c3ccc(F)cc3)nc2c1 (stereo not shown) | 2.6 |
| COc1cc2c(cc1OC)C(=O)N1[C@H]3c4cc(Cl)ccc4OC[C@@H]3[C@H](c3ccccc3)[C@]1(C)C(=O)N2 | 13.1 |
| CCOc1cccc(N(C(=O)CCC(=O)Nc2cc(C)on2)C(C(=O)NC(C)(C)C)c2ccc(OC)cc2)c1 (stereo not shown) | 9.42 |
| COC(=O)C1=C(c2ccc3ccccc3c2)C[C@@H]2CC[C@H]1N2C(=O)NC(C)C | 10.5 |
| CC(C)CCNC(=O)C1CCCCN1S(=O)(=O)c1ccc(F)cc1 (stereo not shown) | 12 |
| O=C(CCN1C(=O)/C(=C/c2cccs2)SC1=S)N1CCCCC1 | 11.3 |
| CNC(=O)C(=O)Nc1nc(C23CC4CC(CC(C4)C2)C3)cs1 | 10.1 |
| CCOC(=O)c1c(NC(=O)c2ccccc2C)sc2c1CC(C)(C)OC2 | 8.48 |
| CCOc1cc(CNCCO)cc(Br)c1OCc1cccs1.Cl | -4.1 |
| O=C(Cc1ccc(Br)cc1)N1CCN(c2ccccc2O)CC1 | 9.37 |
| CCOc1ccc(CCNC(=O)CN2CCN(Cc3ccccc3F)C2=O)cc1OCC | -0.385 |
| Cn1c(=O)[nH]c(NC2CCCCC2)c([N+](=O)[O-])c1=O | 9.8 |
| COC(=O)C1N[C@@H]([C@@H](NC(=O)COc2ccccc2)C(=O)NCc2ccccc2)SC1(C)C (stereo partly shown) | 10 |
| COc1ccc(NC(=O)CCS(=O)(=O)c2ccc3nc(C)sc3c2)cc1OC | 8.23 |
| CC(c1ccccc1)N1C(=O)c2ccc(C(=O)Nc3ccc(Br)cc3C(=O)O)cc2C1=O (stereo not shown) | 11.4 |
| CCOC(=O)c1c(NC(=O)OC)sc2c1CCC2 | -3.17 |
| O=C(CN1CCN(Cc2ccccc2Cl)CC1)N/N=C/c1ccco1 | 1.4 |
| CC(C)N(C(=O)COC(=O)[C@@H]1CC(O)CN1S(=O)(=O)c1ccccc1[N+](=O)[O-])C(C)C (stereo partly shown) | 20.5 |
| CCn1c(SCC(=O)N2CCC(C)CC2)nnc1-c1ccc(S(=O)(=O)N2CCN(C)CC2)cc1 | 1.98 |
| CCCC(=O)c1cc2cc(Cl)ccc2oc1=O | 8.92 |
| COc1ccc(NCc2n[nH]nc2-c2ccccc2)cc1Cl | 10.6 |
| O=C(c1ccccc1)c1ccc(OCC(O)CN2CCCC2)cc1 (stereo not shown) | -8.71 |

| SMILES | hERG current change (%, negative = inhibition) at 1uM [%] |
| --- | --- |
| COc1ccc(NC(=O)CN(C)C(=O)C(C)Oc2ccc(Br)cc2)cc1 (stereo not shown) | 7.61 |
| CC[C@@H](C)[C@H](NC(=O)C1CCN(C(=O)[C@@H](NS(=O)(=O)c2ccc(C)cc2)C(C)C)CC1)C(=O)O | 20 |
| CCCn1c(SCC(=O)NCC(=O)Nc2ccc(F)c(F)c2F)nc2ccccc2c1=O | 8.5 |
| CCn1cc(C(=O)NC2CCCCC2C)c(=O)c2ccc(C)nc21 (stereo not shown) | 14.3 |
| CCN(CC)CCC#CC1(O)c2ccccc2-c2ccccc21 | 14.9 |
| COc1ccc(OC)c(/C=C2\NC(=O)NC2=O)c1 | 6.07 |
| CC(C)CCC1(C)NC(=O)N(CC(=O)c2ccc[nH]2)C1=O (stereo not shown) | -3.08 |
| O=C(COC(=O)Cn1cnc2ccccc21)Nc1ccc2c(c1)C(=O)c1ccccc1C2=O | 2.39 |
| CC12CCCCC1c1ccccc1C(=NCC(=O)O)N2 (stereo not shown) | -3.09 |
| COCCNC(=O)CSc1nc2ccccc2c(=O)n1CCCC(=O)NCc1ccccc1 | -5.34 |
| CN1CCN(CCC(=O)N/N=C/c2ccccn2)CC1 | 20.1 |
| CCn1c(SCc2nc3ccccc3s2)nnc1-c1cccs1 | 0.0975 |
| O=C(NC1CCCC1)NS(=O)(=O)c1ccccc1Cl | 12.4 |
| Brc1ccccc1 | 3.79 |
| CCOc1ccc(C(=O)NC(=S)Nc2ccc(NC(=O)C(C)C)cc2)cc1[N+](=O)[O-] | 4.85 |
| COc1ccc(NC(=O)CSCC(=O)Nc2cc(Cl)ccc2N2CCCC2)cc1 | -2.99 |
| Cc1cc(C(=O)NCc2ccc3c(c2)OCO3)c(C)o1 | 11.1 |
| CC(=O)N1CCC(N2CCN(Cc3ccc(C)cc3)C(CCO)C2)CC1 (stereo not shown) | 13.2 |
| COC(=O)C1=C(C)N(c2ccc(C(=O)OC)cc2)C(=O)C1 | 19.4 |
| O=C(O)CNC(=O)C1CCCN1C(=O)CNC(=O)OCc1ccccc1 (stereo not drawn) (Cbz-Gly-[ξP]-Gly-OH) | 5.42 |
| O=C(CCS(=O)(=O)c1cccc2nonc12)N1CCN(c2ccc(F)cc2)CC1 | -26.3 |
| Cc1ccc(S(=O)(=O)C(C#N)=C2N(C)c3ccccc3N2C)cc1 | 84.2 |

| SMILES | hERG current change (%, negative = inhibition) at 1uM [%] |
| --- | --- |
| CC1CCC2C(C1)c1sc(=O)[nH]c1SC2(C)C (stereo not shown) | 10.6 |
| CCOC(=O)Cn1c(CN2CCOCC2)nc2c1c(=O)[nH]c(=O)n2C | 10.5 |
| COc1ccccc1N1CCN(C(=O)c2cc3c(-c4ccc(Cl)cc4)nn(C)c3s2)CC1 | 2.69 |
| CSCC[C@H](NS(=O)(=O)c1ccc(C)cc1)C(=O)N1CCC(C(=O)N[C@@H](C)C(=O)O)CC1 | 6.46 |
| COc1ccccc1C1C=C(c2ccc(C)cc2)Nc2nnnn21 (stereo not shown) | 7.55 |
| O=C(O)c1cccc(NC(=O)c2cn(-c3ccccc3)nc2-c2ccncc2)c1 | 21.1 |
| COC(=O)c1c(NC(=O)CN2CCOCC2)sc2c1CCC(C)C2 (stereo not shown) | 5.22 |
| COc1cccc(NC(=O)C(c2ccccc2)N2CCNC(=O)C2)c1 (stereo not shown) | 5.07 |
| COc1ccc(CC(=O)Nc2cc(S(=O)(=O)N3CCCCC3)ccc2N2CCN(C)CC2)cc1 | -7.26 |
| Cc1ccc(N(C)S(=O)(=O)c2ccc(-c3ccc(=O)[nH]n3)s2)cc1C | 6.6 |
| CC(C)c1ccc2nc(N)sc2c1 | 4.39 |
| O=C(c1n[nH]c2ccccc12)N1CCN(S(=O)(=O)c2ccc3ccccc3c2)CC1 | -0.17 |
| COc1ccc2c(c1)CCc1c(C(=O)NCC(C)C)noc1-2 | 27.2 |
| NC(=O)Nc1ccc(C(=O)OCC(=O)Nc2cccc(S(=O)(=O)NC3=NCCC3)c2)cc1 | 14.4 |
| O=C(NCCCN1CCCC1=O)c1cccc(S(=O)(=O)N2CCN(c3ccc(F)cc3)CC2)c1 | 9.13 |
| CCOc1cc(/C=N/NC(=O)c2nnn(-c3nonc3N)c2C)ccc1OCc1ccc(F)cc1 | 13.3 |
| COc1ccc(C(=O)c2sc3nc(-c4ccccc4)ccc3c2N)cc1 | 19.7 |
| Oc1cccc(Nc2nc(N3CCOCC3)nc(N3CCOCC3)n2)c1 | 12.2 |
| CCOc1ccc2[nH]c(=O)c(CN(Cc3cccs3)Cc3nnnn3C(C)(C)C)cc2c1 | 9.72 |
| O=C1c2cc(S(=O)(=O)NCCCO)ccc2-c2ccc(S(=O)(=O)NCCCO)cc21 | 6.11 |
| O=C(CSc1nnc(Cc2cc(=O)[nH]c(=O)[nH]2)n1-c1ccccc1)NCC1CCCO1 (stereo not shown) | 1.91 |
| CC(/C=C/c1ccc(O)cc1)=N/O | 12.9 |
